Assay results: patent publication US20240382412A1, “BIOORTHOGONAL CATALYTIC PATCH AND METHODS OF USING THE SAME” (THE REGENTS THE UNIVERSITY OF CALIFORNIA, priority 2020, published 2024)
Read-outs that look alike come from different tables or passages of the source.

What was measured:
calf thymus DNA = assay: fluorescence titration of binding to ctDNA; conditions: fluorescence titration method
Excerpt: In vitro prodrug activation by PT-MNs.

HepG2 cells = assay: viability of HepG2 cells; format: cell-based
Description: Data points represent mean s.d. (n=3).
(§1) Next, a cell viability assay using B16F10 cells was carried out to study the toxicity profiles of alloc-DOX, DOX and alloc-DOX/PT-MNs 10 combination at different concentrations from 5 nM to 0.2 μmM.

[1] = in vivo toxicity by body weight change after i.p. injection; parameters: species or system mice
Excerpt: In vivo prodrug activation by PT-MNs for cancer therapy. To evaluate the in vivo tumor inhibition performance by the bioorthogonal PT-MNs/alloc-DOX combination, an anticancer study was undertaken using a B16F10 μmouse melanoma model. First, the ability of PT-MNs 10 to penetrate skin tissue 100 was evidenced by pressing the patch 10 with a gentle force against the skin 100 over the melanoma tumor (FIGS. 36A-36C). It could be seen that the needle 14 matrix swelled into three-dimensional porous networks after removing from mice (FIGS. 37A-37B), such changes in structure could help to alleviate mass transport barriers during the bioorthogonal catalysis. Meanwhile, to decide which the dose of alloc-DOX could be given for treatment, the in vivo toxicity of alloc-DOX was determined by measuring the weight changes of mice and compared with those of mice treated with DOX (FIGS. 38A-38B).

4T1 cells = assay: viability of 4T1 cells; format: cell-based
Description: as §1

[2] = catalytic deprotection of alloc-DOX by Pd-TNSs (HPLC)

Compound	binding constant K toward ctDNA (calf thymus DNA) [M⁻¹]	IC50 (HepG2 cells; Homo sapiens) [µM]	time of death ([1]; 15 μmg/kg i.p. every 3 days)	IC50 (4T1 cells; Mus musculus) [µM]	IC50 (HepG2 cells) [µM]	times less toxic than DOX (HepG2 cells; from IC50)	yield of DOX from alloc-DOX ([2]; reaction mixture with Pd-TNSs after 24 h) [%]	yield of DOX from alloc-DOX ([2]; reaction mixture without Pd-TNSs) [%]	body weight changes ([1]; i.p. every 3 days, dose 150 μmg/kg) [%]	IC50 (4T1 cells) [µM]	times less toxic than DOX (4T1 cells; from IC50)
COc1cccc2c1C(=O)c1c(O)c3c(c(O)c1C2=O)C[C@@](O)(C(=O)CO)C[C@@H]3O[C@H]1C[C@H](N)[C@H](O)[C@H](C)O1 [DOX, Doxorubicin]	936000	0.34	seventh day	0.22							
C=CCOC(=O)N[C@H]1C[C@H](O[C@H]2C[C@](O)(C(=O)CO)Cc3c(O)c4c(c(O)c32)C(=O)c2c(OC)cccc2C4=O)O[C@@H](C)[C@H]1O [alloc-DOX, N-(allyloxycarbonyl) doxorubicin]	79600				~9.08	about 27 times	~81.6	0	≤ 10	~8.06	around 37 times
